Results: the RNAGym collection of RNA variant scans (doi:10.7554/elife.90254)
The source gives no read counts; variants with many changes may rest on few reads.

B1: LINE1-full (parent)
chain: UACGUAGGUGGUUUUCCCCUGAUAGUGCUAAGGGGGCCUGGAAGUUUGGACUGGGCAGAGCUCAACACAGCGUGGCAAAGUGGCUGUGGCUAGACUGCCUCUCUGGAUUCCUCGUCACUCAGCAGGGCAUCUCUGAGAGAAAUGCC

Variants of: B1
Assay: self-cleavage, relative activity (ratio to wild type); higher = more cleavage; in vitro, sequencing; the parent is a self-cleaving ribozyme

Variant | self-cleavage
U20C U52A A59G U73A | 0.11
A6G A43G C51U A57G U96C | 1.41
G34U C90A A121G | 0.04
A43G U119G A140G | 0.4
A43G U47A U87A U102A | 0.07
A57U A65U A79G A141U | 0.11
C66G A94G A129G | 0
A67G G88A U112A U119C U143A | 0.03
U62A A136G A140G A141G | 0
A43G U52A C110A | 1.59
U46C G70A U102C | 0.43
U47C U112C A138G | 2.8
A42G U62C U143A | 0.07
A78G U85C C99U U132C A140U | 0.08
U62A A67G A77U A129G | 0.07
U20A A77G G88A C99A U134C | 0.08
A78U A124G U132C | 1.45
A42G A107G U115C | 0
U73C C111U U130C | 1.05
U87A A94U U109A A140G | 0.08
A64G A136U A140G | 0.23
U14C A65G U143C | 0.13
U52C A117G C123U | 1.78
U13C G21A U29C U46A | 1.67

Variant | self-cleavage
A6G A31G U47A A129G | 0.75
G33U G40A U104C | 1.09
A42G A64G U87A | 0.11
U9C U81A A124G A141G A142G U143C | 0
A69G A107G U115A A129G | 0
C3U U29A C38U | 0.77
U112A A117G A141U | 1.46
A6G U14C A78G | 0.99
A43G U47A A121U U143A | 1.14
G7A U52C A65G U85C | 0
G27A A57U U81A U130C | 0.09
A43G A65G U73C | 0
U12C A22G U73C U132C | 1.84
U14C U39C A50U A94G A140U | 0.2
U12C U62C A77G G114A U119C U132A A142G | 0.08
A43G A50U U102C C113U A138G | 0
A22C U23A A31U U62C C116A A140G | 0.11
A50G C51A A69U A79G A140G | 0.04
A6C U112C U119A | 0.68
G7U A43G U119C | 1.53
U26C G53A A57U A136C | 0.15
U9A U15C A64G A141G | 0.38
U13C A65G A69C U112C U115A A142G | 0
U52C U87A A117U A140G | 0.03

Variant | self-cleavage
U46C G53A A57G U143C | 1.57
U23C A107G U115C U130C | 1.84
U15A A50G A142G | 0.89
A43G A50G A140G U143C | 0
U14C U108C U143C | 1.19
G4U A65G U134C | 0
U39C G114A C120U | 1.36
U1C U73C G83C | 1.38
A30G U109A A141G A142U | 1.33
U81C A138G A141G | 1.04
U87C U104C G105U | 0
A57G A67G U134A | 0
U15C U73C A140G | 1.92
U119A C123G A141G A142G | 1.36
U47A U134C G144A | 0.71
U85C U87C A140G | 0
U29C A31G U108C | 0
U39G U62C U73A | 0.02
U9C A65G A77G | 0
A65U U100A U115C | 0.16
U29C A64U U91A | 0.15
U39C A78G U115C | 1.07
A2G A78G U112A | 0.65
A79U U102C A117U | 1.7

Variant | self-cleavage
U29C A30C U81A U102C | 1.7
A42U U45C G72U | 1.06
U39A G41U A121G | 1.69
U20C G54A U130A | 0.46
A65G G83A A94U | 0.03
A43U U45C U100C U132C | 1.75
U12C A50G G93C U112C A129G | 0
U14C A50U C101U | 0.82
U47A U73C A124U | 1.2
U5C A22G A50G U119A G127A | 0.38
U15C A30G U112C | 1.86
U39C A117C A121U | 2.51
U96A U112C U115C | 0.2
U45C G74A A124C | 1.43
C19U G34U U87A | 0.08
G33A A77U U96A A142G U143C | 0.08
U13C U20C U130C | 1.58
U39C A57U U100A A138G | 0.06
U29C A117C A138G | 1.63
A59G U73A A78U U102A | 0.09
A22U A69G A117U | 0.65
U5C U15C U81C | 1.84
A6U U73A U85C U100A G114A A124U | 0.09
U9C A79G G122A | 1

Variant | self-cleavage
U13C U91C A129U | 0.86
A64G U104G C116U A129U A142G | 0.26
U1C U52A U104A A140G | 0.3
U47C A78G U100A | 0.22
G35A U39C A43G | 1.33
A6G U13A A79G | 0.21
U46C U100A A140U | 1.61
U81C U102A U104C | 0
A24U U47A A50C U85C | 0
U39C G105U A124U U132C | 1.87
G48A A79G U112A U143C | 1.29
A2G U62C A129U | 0
U13C U73A A94G | 0.41
U13C G48A U85G A136C A141G | 0.33
A30U C51U A77G | 1.31
U14C A30G G32A | 1.84
U9C A22U U108C | 1.56
U13A A42G U62C | 0.06
C28U G40A U119A | 1.03
U13C A94G A107G | 0.31
A65G U102C U112A A142C | 0.13
U26C U73C G114A | 2.94
A30G A31U U87A A129G | 0.07
U5C U23A A78G U109C A138G | 1.89

Variant | self-cleavage
U9C U15C U119C U130C | 1.53
G34A U104A G105U | 1.36
C28G A42U A94G U115A A121G | 0.14
G72A A79G G89C C99A U130A | 0.02
U23A A77U U130C A142G | 0.77
U46C A59G A136G | 0
U9A G122U A140U A141G | 1.42
U52G U81A A92G | 0.41
U20G A121G A124G | 0.46
U13A U73C C113U A124U | 0.93
A22G U26C U46C U130A A136U | 1.53
U14C G40U U47C U115C A138U | 0
A42G A65G A69G U81A C116U C120U | 0.1
A67G G70U C98U U102C | 0.01
G32A U47A A64U C90U A121G | 0.07
A69U U96C C111U | 0.02
U13C U115A A136G A141G | 1.25
U14C A30U A59G A65C U134A | 0
U20A U62A G114A | 0.04
A6G A57G U62C U85A U115C U119A | 0
U9A U109A A142G | 0.73
A43G G55A A59G C61U U91C A92G | 0
A2U U12G A59G A138C | 0.2
U12C A31G U134C | 0.06

Variant | self-cleavage
U26C U47C U87A | 0.04
U46C U52A A94U | 0.47
G27A A42G A50G A138G | 0.28
A2U A117G U119A | 1.06
U39C C76U A77G U100C C111U U143C | 2.62
U9C U132C U143G | 0.42
U13C G75A U81C | 0.95
A57U A59U G135A A140G | 0.08
U1A A2G U39C A67G U81C G88A | 1.53
G48U A64G A141G | 0.19
U13G U14A U46A A77G G86A U87A G135A | 0.18
U14G A50U U108C | 1.44
A6G U12A U119C | 1.31
G35A A117G A121G | 2.01
U1A U115C A136G | 1.69
A31U G48A A59G C76U U115C U130C | 0.17
C19U U62A A107G | 0.08
U108C A129U A141G | 1.25
A57U U108C A140G | 0.12
G36A A78G U96C | 0.07
U5C U14C C61A | 0.21
A42G U47C U109A | 1.02
A2G U115C A138G | 0.32
